From PubChem BioAssay AID485281 (National Center for Advancing Translational Sciences (NCATS), 2010)
Out of some 350,000 compounds screened, about 260 (0.074%) were called active. The inconclusive results got no clear call from the source; some entries with a clear call stand among them for comparison. Calls come from the whole dose curve; as a rule, active = well fitted inhibition curve with a large enough effect; inconclusive = small, poorly fitted or top-dose-only effect; inactive = no such curve, though single readings can be large or run the other way. Potencies beside an inconclusive call are fits to weak or partial responses and may not hold up.

Biological target: Ferritin light chain (Equus caballus) (UniProt P02791)
Assay: qHTS Assay for Identification of Novel General Anesthetics; note: nearly all actives have a fitted effect of over 20% in size
Conditions: apoferritin/1-aminoanthracene competitive binding, fluorescence; activity change, negative = displacement: at 77.5 µM (top of the series)
In short: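 Read-out: endpoint 1-AMA fluorescence, excitation 380 nm and emission 535 nm, after compounds sit 10 min at room temperature with 10 uM horse-spleen apoferritin in 50% saturated 1-AMA/PBS. Values come from four-parameter Hill fits.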
% is set by controls: 0 for no effect and ±100 for the full control effect; potency is the fitted concentration of half-maximal effect; tags give direction and shape of the fitted curve.

Sequence of UniProt P02791 (P02791 whole entry, looked up): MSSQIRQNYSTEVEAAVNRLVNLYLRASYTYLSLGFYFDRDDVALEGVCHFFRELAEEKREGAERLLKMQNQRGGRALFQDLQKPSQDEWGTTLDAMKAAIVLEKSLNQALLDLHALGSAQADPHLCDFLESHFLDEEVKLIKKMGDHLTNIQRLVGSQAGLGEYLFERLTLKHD

Potency, inactive:
Cc1ccccc1OCC(O)Cn1c(=N)n(CCN2CCOCC2)c2ccccc21 (stereo not given)

Potency, inconclusive:
CC1=NN(C(=O)Cc2ccc([N+](=O)[O-])cc2)C(O)(c2ccccc2)C1 (stereo not given) 50.1 µM [inhibitor, single point]
CCN(CC)c1ccc(-c2nc(-c3ccncc3)no2)cc1[N+](=O)[O-] 12.6 µM [inhibitor, partial curve]
O=C(OCC(=O)N1CCc2ccccc21)c1c2c(nc3ccccc13)CCCC2 7.08 µM [inhibitor, full curve]
CC(=O)OCC(=O)Nc1cc(S(=O)(=O)N2CCCCCC2)ccc1Cl 20 µM [inhibitor, partial curve]
CCOC(=O)c1sc(Nc2ccc(C)cc2C)nc1C 31.6 µM [inhibitor, partial curve]
O=C(COc1ccccc1[N+](=O)[O-])Nc1ccccc1N1CCCCC1 31.6 µM [inhibitor, partial curve]
Cc1ccc(C(=O)Cn2nc(C)c([N+](=O)[O-])c2C)c(C)c1 39.8 µM [inhibitor, single point]
Cc1ccccc1C(=O)/C=C1\NC(=O)CS1 39.8 µM [inhibitor, single point]
CCCc1ccc(-c2ccc(F)c(N)c2)nc1 20 µM [inhibitor, partial curve]
OC(CCc1cccc(Cl)c1)c1cccs1 (stereo not given) 39.8 µM [inhibitor, partial curve]
Nc1ncccc1OCc1ccc(Br)cc1 22.4 µM [inhibitor, partial curve]
CN(C)c1ccc(N/C(N)=N/c2nc(C(F)(F)F)cc(C(F)(F)F)n2)cc1 31.6 µM [inhibitor, partial curve]
COc1ccc(C(=O)CSc2nnc(COc3ccccc3)n2Cc2ccco2)cc1 17.8 µM [inhibitor, partial curve]
CC(C)C1Nc2c(O)cc(Cl)c([N+](=O)[O-])c2C2C=CCC21 (stereo not given) 35.5 µM [inhibitor, partial curve]
CC(C)(C)c1cnnn1-c1ccc(NC(=O)c2ccc(Br)o2)cc1 25.1 µM [inhibitor, partial curve]
O=C1N=c2ccccc2=C1c1sc(Nc2cccc(O)c2)nc1O 20 µM [inhibitor, partial curve]
CCCc1ccc(C2C3=C(CC(C)(C)CC3=O)NC3=C2C(=O)c2ccccc23)cc1 (stereo not given) 28.2 µM [inhibitor, partial curve, poor fit]
Cc1ccc(CCNS(=O)(=O)c2ccc(C)cc2)cc1 25.1 µM [inhibitor, partial curve]
O=C(c1ccc(Cn2cc(Br)cn2)o1)N1N=C(C(F)F)CC1(O)C(F)F (stereo not given) 39.8 µM [inhibitor, partial curve]
O=C(/C=C/c1c(F)cccc1Cl)c1ccc(F)cc1 25.1 µM [inhibitor, partial curve]
FC(F)(F)c1cc(Oc2ccccc2Cl)nc(-c2ccccn2)n1 50.1 µM [inhibitor, single point]
Cc1cc(OCC(=O)NN2C(=O)c3ccccc3C2=O)ccc1Cl 35.5 µM [inhibitor, single point]
CC(C)C[C@H](NC(=O)c1[nH]cnc1C(=O)N[C@H](C)c1ccccc1)C(=O)OC(C)(C)C 3.98 µM [inhibitor, full curve]
CNC(=O)CN(c1ccc(C23CC4CC(CC(C4)C2)C3)cc1)S(C)(=O)=O 7.08 µM [inhibitor, full curve]
O=C(CCS(=O)(=O)Cc1ccccc1)N1CCN(c2ccc([N+](=O)[O-])cc2)CC1 39.8 µM [inhibitor, single point]
NNC(=O)CN1CCN(c2ncc(C(F)(F)F)cc2Cl)CC1 25.1 µM [inhibitor, single point]
Cc1cc(NC(=O)CC(C)C)c(=O)n(Cc2c(F)cccc2Cl)c1 22.4 µM [inhibitor, partial curve]
COc1ccc(S(=O)(=O)Nc2ccc(S(=O)(=O)N3CCCCC3)cc2)cc1 31.6 µM [inhibitor, partial curve]
O=C(NCC1CCCCC1)c1cc([N+](=O)[O-])ccc1N1CCOCC1 39.8 µM [inhibitor, partial curve]
Cc1cc(NC(=O)COC(=O)CC2CCCC2)c([N+](=O)[O-])cc1C 15.8 µM [inhibitor, partial curve]
CCSc1nnc(NC(=O)CSc2nnc(Cc3cccn3C)n2CCc2ccccc2)s1 50.1 µM [inhibitor, single point]
COC(=O)COc1ccc(C2C(C(=O)OC)=C(C)NC3=C2C(=O)c2ccccc23)cc1OC (stereo not given) 35.5 µM [inhibitor, partial curve]
CCC(C(=O)NCCC1=CCCCC1)c1ccccc1 (stereo not given) 25.1 µM [inhibitor, single point]
CC1=CC(C)[C@@H]2COC(c3ccc(O)cc3)[C@H]1C2C (stereo not given in full) 39.8 µM [inhibitor, partial curve]
O=C(Nc1cc(Cl)ccc1Cl)c1cc(S(=O)(=O)NCCc2ccccc2)ccc1F 4.47 µM [inhibitor, full curve]
Cc1nc(CNC(=O)c2cc(COc3ccc(F)cc3Cl)on2)cs1 28.2 µM [inhibitor, partial curve]
CC(C)(C)c1ccc(OCC(=O)N2CCCCCC2)c(Br)c1 10 µM [inhibitor, partial curve]
CC1=C(C(=O)NCc2ccccc2Cl)C2(CCCCCC2)OC1=O 25.1 µM [inhibitor, partial curve, poor fit]
O=C(O)c1ccc2cc(-c3ccc(O)c(C45CC6CC(CC(C6)C4)C5)c3)ccc2c1 31.6 µM [inhibitor, single point]
CC(=O)c1ccc(NS(=O)(=O)c2ccc(C)cc2)cc1 50.1 µM [inhibitor, single point]
O/N=C1/CCSc2ccccc21 25.1 µM [inhibitor, partial curve]
Cc1ccc(C(CCN(Cc2ccccc2)C(=O)c2ccco2)c2ccco2)cc1 (stereo not given) 35.5 µM [inhibitor, single point]
O=c1c2cc3c(cc2[nH]c(=S)n1Cc1ccco1)OCO3 35.5 µM [inhibitor, single point]
CC1CCN(c2nc3c(S(=O)(=O)c4ccccc4)nnn3c3ccc(Cl)cc23)CC1 2.51 µM [inhibitor, full curve, poor fit]
CCC(C)c1ccc(NC(=S)NC(C)C2CCCO2)cc1 (stereo not given) 35.5 µM [inhibitor, single point]
Cc1ccc(-c2nc3ccccc3[nH]2)cc1NC(=O)COc1ccccc1[N+](=O)[O-] 10 µM [inhibitor, partial curve]
CCC(C)C(NC(=O)c1ccccc1NC(=O)c1ccc(OC)cc1)C(=O)NCc1ccco1 (stereo not given) 11.2 µM [inhibitor, partial curve]
O=c1c2ccccc2oc2ccc(Oc3ccccc3)cc12 50.1 µM [inhibitor, single point]

Activity change, negative = displacement, inconclusive:
CC(C)c1ccc(/C=C2\SC(=O)N(CC(=O)NCCCn3ccnc3)C2=O)cc1 -26.1% [inhibitor]

Activity change, negative = displacement, inactive:
Cc1ccc(C(=O)N2CCN(Cc3ccccc3)CC2)o1 -3.57%
O=C(CSc1nccn(-c2cccc(F)c2)c1=O)Nc1ccc(Cl)cc1F 3.9%
Cc1cc(N/N=C/c2ccc(O)cc2O)nc(-c2ccccc2O)n1 -12.7%
CCC(CC)C(=O)c1c[nH]c(C(=O)O)c1 -0.959%
CCOC(=O)COc1c(-c2ccc(OC)cc2)oc2ccccc2c1=O -14.6%
COc1cc(OC)cc(-c2nnc(SCC(=O)N(C(C)C)C(C)C)o2)c1 -13.6%
CC(C)OC(=O)CC(=O)c1sc2nc3c(cc2c1N)CN(C)CC3 -7.5%
CCN1CCN(c2ncc3c(n2)CCN(Cc2cc(Br)cs2)C3)CC1 24.4%
O=C(CSc1nc2ccsc2c(=O)n1Cc1ccc(F)cc1)NCc1ccc(Cl)cc1 -9.76%
CC1=CC2=NC(=O)/C(=C/c3coc4ccc(Cl)cc4c3=O)C(=N)N2O1 -17.8%
CN(c1ccccc1)S(=O)(=O)c1ccc(Cl)c(C(=O)NC2=NCCS2)c1 -18.2%
COc1ccc(Nc2oc(-c3ccc(COc4cccc(C)c4)o3)nc2C#N)cc1 209%
CC(C)C(=O)N1CCN(c2ccccc2NC(=S)NC(=O)c2cccs2)CC1 -14.8%
COc1cccc(NC(=O)C2CCCN2C(=O)Nc2ccccc2)c1 (stereo not given) 1.37%
O=C(O)c1ccc(N/N=C/c2ccc(OC(=O)c3ccccc3Cl)cc2)cc1 -2.34%
CS(=O)(=O)c1ccc([C@H](O)[C@H](CF)NC(=O)C(Cl)Cl)cc1 -5.91% [at 29.3 µM]
CC(C)n1c(/C=C/c2ccccc2)nc2ccccc21 -1.26%
CCOC(=O)C1CCN(C(=O)Cn2nc(C)n3c(cc4sccc43)c2=O)CC1 -0.735%
CCCC(=O)N(C1CC(C)C(C#N)(C#N)C1(C#N)C#N)N(C)C (stereo not given) 2.22%
COc1ccccc1NC(=O)c1ccccc1Nc1ccccc1 36.4%
